Measurements as given in PubChem BioAssay AID504332 (National Center for Advancing Translational Sciences (NCATS), 2011).
The whole screen tested about 350,000 compounds, of which about 31,000 (8.9%) were called active. This list was built around the results that the source calls inconclusive (neither active nor inactive); the mix of calls is not that of the screen. The call rests on the fitted dose curve; in most records, active means well fitted inhibition curve with a large enough effect; inconclusive means small, poorly fitted or top-dose-only effect; inactive means no such curve, though single readings can be large or run the other way. Where the call is inconclusive, the potency comes from a doubtful curve fit.
Further: nearly all actives have a fitted effect of over 75% in size.
On the % scale 0 is the no-effect control and ±100 the full control effect; potency means the concentration at half of the fitted maximal effect; tags describe the fitted curve by direction and shape.

The molecules below were run against Histone-lysine N-methyltransferase EHMT2 (Homo sapiens) (UniProt Q96KQ7) (assay: qHTS Assay for Inhibitors of Histone Lysine Methyltransferase G9a). Details: G9a H3K9 monomethylation, AlphaScreen, 2 h; activity, negative = inhibition: at 59 µM (top of the series) unless noted.
Sequence of UniProt Q96KQ7 (Q96KQ7 whole entry, looked up): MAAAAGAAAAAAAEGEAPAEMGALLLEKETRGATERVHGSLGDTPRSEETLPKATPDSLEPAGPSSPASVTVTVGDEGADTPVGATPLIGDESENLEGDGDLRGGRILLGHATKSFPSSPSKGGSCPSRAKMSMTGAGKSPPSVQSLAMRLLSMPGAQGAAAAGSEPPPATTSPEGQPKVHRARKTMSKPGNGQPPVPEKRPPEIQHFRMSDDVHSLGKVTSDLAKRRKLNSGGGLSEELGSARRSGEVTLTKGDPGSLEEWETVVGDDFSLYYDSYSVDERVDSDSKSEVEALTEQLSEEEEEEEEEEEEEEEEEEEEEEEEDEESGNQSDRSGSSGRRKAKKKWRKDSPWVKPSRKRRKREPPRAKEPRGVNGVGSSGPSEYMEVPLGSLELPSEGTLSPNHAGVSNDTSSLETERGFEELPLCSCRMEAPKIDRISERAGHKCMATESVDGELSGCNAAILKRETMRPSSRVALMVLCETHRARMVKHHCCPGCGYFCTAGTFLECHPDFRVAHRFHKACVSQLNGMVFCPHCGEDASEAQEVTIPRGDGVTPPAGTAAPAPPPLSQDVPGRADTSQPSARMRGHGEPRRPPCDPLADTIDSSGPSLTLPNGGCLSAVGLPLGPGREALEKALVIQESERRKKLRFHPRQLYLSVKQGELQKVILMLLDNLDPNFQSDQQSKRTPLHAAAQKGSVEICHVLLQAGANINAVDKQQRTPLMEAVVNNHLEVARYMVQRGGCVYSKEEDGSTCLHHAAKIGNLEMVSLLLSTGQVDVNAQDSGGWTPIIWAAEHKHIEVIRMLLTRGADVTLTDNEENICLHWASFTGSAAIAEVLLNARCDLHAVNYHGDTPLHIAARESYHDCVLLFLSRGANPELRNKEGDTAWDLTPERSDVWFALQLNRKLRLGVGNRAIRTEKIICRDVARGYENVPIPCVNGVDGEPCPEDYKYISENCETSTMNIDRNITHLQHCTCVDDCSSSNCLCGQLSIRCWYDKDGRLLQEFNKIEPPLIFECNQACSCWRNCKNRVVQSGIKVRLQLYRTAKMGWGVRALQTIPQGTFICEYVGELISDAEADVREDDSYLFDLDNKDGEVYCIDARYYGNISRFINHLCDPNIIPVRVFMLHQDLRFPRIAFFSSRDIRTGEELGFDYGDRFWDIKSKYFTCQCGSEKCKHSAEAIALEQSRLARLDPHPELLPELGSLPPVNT
Outline: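 AlphaScreen detection with an anti-monomethyl H3K9 antibody quantified product after a 2 h room-temperature reaction containing 500 nM biotinylated H3K9 peptide, 20 µM SAM and 20 nM enzyme, which had been preincubated 15 min with compound.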
`CN(Cc1ccccc1)c1nc2c(c(=O)n(C)c(=O)n2C)n1CCSc1ncccn1` was tested, and the Potency was inconclusive: 89.1 µM [inhibitor, partial curve, poor fit]. For `Cc1ccc(NCCCCO)cc1C`, the Potency was inconclusive: 56.2 µM [inhibitor, single point]. For `C/C(=N\NC(=O)Cc1cccn1C)c1ccc2ccccc2c1`, the Potency was active: 70.8 µM. In the case of `COC(=O)Sc1nnc(-c2ccc(Br)cc2)o1`, the Potency is reported as inconclusive: 4.47 µM [inhibitor, single point]. With `CCCCN1CCc2nc(N3CCN(C)CC3)ncc2C1` the Potency was inconclusive: 8.91 µM [inhibitor, partial curve, poor fit]. In the case of `O=C(COc1ccc(Cl)cc1)Nc1nc(-c2ccncc2)cs1`, the Potency is reported as active: 7.94 µM. In the case of `CC(C)c1cc(C(=O)O)c2ccccc2n1`, the “activity, negative = inhibition” value is reported as inactive: 4.22% [at 102 µM]. In the case of `COc1ccc(N2CCN(C(=O)CS(=O)(=O)c3cccc4nsnc34)CC2)cc1`, the “activity, negative = inhibition” value is reported as inactive: 57.3%. `CCCCCC1CCC(c2n[nH]c(=S)n2C)CC1` (centres undefined) was tested, and the Potency was inconclusive: 8.91 µM [inhibitor, full curve]. `CC(=O)N1CCc2cc(Br)cc(S(=O)(=O)N3CCN(c4cccc(C)c4)C(C)C3)c21` (centres undefined) was tested, and the Potency was inconclusive: 10 µM [inhibitor, partial curve, poor fit]. In the case of `COCCn1c(=O)c(-c2cccs2)nc2cnc(Oc3ccc(OC)cc3)nc21`, the activity, negative = inhibition is reported as inactive: -4.8% [at 12.7 µM]. With `O=S(=O)(NCCN1CCOCC1)c1ccc(Cl)c(Cl)c1` the Potency was inconclusive: 20 µM [inhibitor, full curve]. In the case of `CN1CCN(c2ccc(Cl)cc2NC(=O)c2ccc(S(=O)(=O)N3CCCCCC3)cc2)CC1`, the Potency is reported as inconclusive: 39.8 µM [inhibitor, single point]. `CCCCCCCCCC(=O)N/N=C/c1ccc(C)s1` was tested, and the activity, negative = inhibition was inactive: 10.9% [at 12.7 µM]. `C=CCN1C(=O)CSc2ccc(C(=O)NCCC3=CCCCC3)cc21` was tested, and the “activity, negative = inhibition” value was inactive: 1.99% [at 102 µM]. For `Cc1ccc(N2C(=O)NC(NC(=O)C(C)(C)C)(C(F)(F)F)C2=O)cc1C` (centres undefined), the Potency was inconclusive: 8.91 µM [inhibitor, single point]. With `CCOc1ccc(C2C(C(=O)Nc3ccc(Cl)cc3)=C(C)Nc3nc(C(F)(F)F)nn32)cc1` (centres undefined) the “activity, negative = inhibition” value was inactive: -12%. With `COc1ccc(OC)c(S(=O)(=O)N2CC=C(c3c(C)n(CC(=O)N4CCCC4)c4ccccc34)CC2)c1` the Potency was inconclusive: 28.2 µM [inhibitor, single point]. With `CSc1ccc(N/N=C(/C#N)S(=O)(=O)C(C)(C)C)cc1` the Potency was active: 50.1 µM. For `NC(N)=N/N=C/c1cccc([N+](=O)[O-])c1O`, the Potency was inconclusive: 79.4 µM [inhibitor, single point]. For `Nc1nccc(/C=C/c2ccc(Cl)cc2)n1`, the “activity, negative = inhibition” value was inactive: -23.3% [at 102 µM]. In the case of `Cc1cc(C)n(CC(O)CN(c2ccccc2)S(=O)(=O)c2ccc3ccccc3c2)n1` (centres undefined), the Potency is reported as inconclusive: 1.41 µM [inhibitor, full curve]. For `COc1ccc(-c2nc3sc(CCNC(=O)c4ccccc4C)c(C)n3n2)cc1`, the Potency was inconclusive: 28.2 µM [inhibitor, partial curve, poor fit]. For `CN(Cc1c(F)cccc1Cl)C(=O)CNC(=O)c1ccc2c(c1)OCO2`, the Potency was inconclusive: 39.8 µM [inhibitor, partial curve, poor fit]. With `Cc1ccc(-n2c(CCc3nc4ccccc4[nH]3)n[nH]c2=S)cc1` the Potency was inconclusive: 39.8 µM [inhibitor, single point]. For `Cc1cn(C)c(CC(=O)N2CCN(c3ccccc3F)CC2)c1C(=O)O`, the “activity, negative = inhibition” value was inactive: -2.83%. In the case of `O=C(NCCCn1ccnc1)C(=O)NCC1OCCN1S(=O)(=O)c1ccc(F)cc1` (centres undefined), the “activity, negative = inhibition” value is reported as inactive: 19.5% [at 102 µM]. With `COc1ccc(OC)c(S(=O)(=O)Nc2cc(C(=O)O)ccc2N2CC3CC(C2)c2cccc(=O)n2C3)c1` (centres undefined) the Potency was inconclusive: 89.1 µM [inhibitor, partial curve, poor fit]. `O=C(Cc1ccccc1)Nc1ccccc1C(=O)O` was tested, and the Potency was inconclusive: 89.1 µM [inhibitor, partial curve, poor fit]. `Cc1ccccc1N1C(S)=C(C#N)C(=O)NC12CCCCC2` was tested, and the Potency was active: 35.5 µM. With `CC(C)Cc1cc(C(=O)Nc2ccccc2)c2ccccc2n1` the Potency was inconclusive: 20 µM [inhibitor, single point]. `O=C(NNc1c2ccccc2nc2ccccc12)c1ccc(O)cc1` was tested, and the Potency was inconclusive: 28.2 µM [inhibitor, single point]. `Cc1c(Cl)cccc1NC(=O)CN1C(=O)CSc2ncccc21` was tested, and the Potency was inconclusive: 100 µM [inhibitor, single point]. For `COc1cc(N2CCCC2)c(OC)cc1/C=C(/C#N)c1cccc(F)c1`, the Potency was inconclusive: 1.58 µM [inhibitor, partial curve, poor fit]. With `Cc1nc(NC(=S)NC(=O)c2ccccc2)sc1C(=O)N(C)C` the Potency was inconclusive: 28.2 µM [inhibitor, single point]. `Cc1cccc(C(=O)Nc2nnc(SCC(=O)Nc3ccc4c(c3)oc3ccccc34)s2)c1` was tested, and the Potency was inconclusive: 35.5 µM [inhibitor, single point]. `CCN1CCN(C(c2ccccc2)c2nnnn2Cc2ccc(OC)cc2)CC1` (centres undefined) was tested, and the Potency was inconclusive: 70.8 µM [inhibitor, single point]. `CCOC(=O)CC1C(=O)NCCN1C(=O)c1ccc(Cl)cc1Cl` (centres undefined) was tested, and the “activity, negative = inhibition” value was inactive: 2.23% [at 102 µM]. In the case of `CC(=O)CC(=O)Nc1ncc(C(F)(F)F)cc1Cl`, the Potency is reported as inconclusive: 89.1 µM [inhibitor, single point]. `COc1ccc2c(c1)CCc1cc(C(=O)N3CCN(c4ccc(N5CCOCC5)nn4)CC3)sc1-2` was tested, and the Potency was inconclusive: 6.31 µM [inhibitor, partial curve, poor fit]. `Cc1ccc(C(=O)NNC2CC(=O)N(c3ccc4c(c3)OCCO4)C2=O)cc1` (centres undefined) was tested, and the Potency was inconclusive: 39.8 µM [inhibitor, partial curve, poor fit]. In the case of `CCOc1cc(N2CCOCC2)c(OCC)cc1NC(=O)Cc1ccccc1OC`, the activity, negative = inhibition is reported as inconclusive: -73.7% [inhibitor]. `O=C(N/N=C/c1cc(Br)c(Br)s1)c1ccncc1` was tested, and the “activity, negative = inhibition” value was inactive: -4.34% [at 102 µM]. In the case of `Cc1ccc(-n2cc(CN3CCC(O)(c4ccccn4)CC3)c(-c3ccc(F)cc3)n2)cc1`, the Potency is reported as inconclusive: 44.7 µM [inhibitor, partial curve]. With `CCn1c(SCC(=O)Nc2nccs2)nnc1-c1ccc(S(=O)(=O)N2CCCCCC2)cc1` the “activity, negative = inhibition” value was inactive: -43.5%. For `CN(C)/C=C1\NC(=S)N(c2ccc(Cl)cc2)C1=O`, the Potency was active: 5.62 µM. In the case of `COC(=O)C(O)(NC(=O)c1ccncc1)C(F)(F)F` (centres undefined), the Potency is reported as inconclusive: 89.1 µM [inhibitor, partial curve, poor fit]. With `O=S(=O)(NCc1ccccc1Cl)c1ccc(N2CCCCS2(=O)=O)cc1` the “activity, negative = inhibition” value was inactive: 14.3%. `CCc1ccccc1NC(=O)CN1CCN(C(=O)CCC(=O)N2CCC(c3ccccc3)=N2)CC1` was tested, and the activity, negative = inhibition was inactive: 18.1% [at 2.33 µM]. With `Cc1ccc2ccc3cc(C(=O)N4CCN(c5ccccc5)CC4)nc3c2[nH]1` the Potency was inconclusive: 11.2 µM [inhibitor, partial curve]. With `O=C(CN(Cc1ccco1)Cc1cccs1)N1CCN(S(=O)(=O)c2cccc(F)c2)CC1` the Potency was inconclusive: 8.91 µM [inhibitor, partial curve, poor fit]. With `CC(=O)Nc1ccc(-c2nnc(SCC(=O)c3ccc([N+](=O)[O-])cc3)o2)cc1` the “activity, negative = inhibition” value was inactive: 6.13%. `CCNC(=S)NCCN1CCOCC1` was tested, and the “activity, negative = inhibition” value was inactive: 31.8%. For `Cc1ccc(S(=O)(=O)Nc2cc3c(cc2N2CCOCC2)n(C)c(=O)c(=O)n3C)cc1`, the Potency was inconclusive: 31.6 µM [inhibitor, partial curve]. In the case of `O=C(Nc1ccc(Br)c2cccnc12)c1ccc(Cn2cc(Cl)cn2)o1`, the Potency is reported as inconclusive: 39.8 µM [inhibitor, single point]. In the case of `CC(C)N(C(=O)CSc1nc2ccccc2n1-c1ccccc1)C(C)C`, the activity, negative = inhibition is reported as inactive: 21.1% [at 0.0925 µM]. `Nc1nccnc1C(=O)OCC(=O)NCCc1ccc(S(N)(=O)=O)cc1` was tested, and the Potency was inconclusive: 56.2 µM [inhibitor, partial curve]. `COc1ccc2nc3oc(C(=O)N4CCN(c5cccc(Cl)c5)CC4)cc3cc2c1` was tested, and the Potency was inconclusive: 44.7 µM [inhibitor, partial curve, poor fit]. For `COc1ccc(C2/C(=C(/O)c3ccccc3)C(=O)C(=O)N2C)c(OC)c1` (centres undefined), the activity, negative = inhibition was inactive: -3.6% [at 0.501 µM]. In the case of `CSc1nsc(SCC(=O)Nc2ccccc2F)n1`, the “activity, negative = inhibition” value is reported as inactive: 12.3% [at 102 µM]. For `Cc1c(Br)c([N+](=O)[O-])nn1CC(=O)c1ccccc1`, the Potency was inconclusive: 79.4 µM [inhibitor, partial curve, poor fit]. For `CCOC(=O)c1ccccc1NC(=O)N1CCOc2ccc(Cl)cc21`, the Potency was inconclusive: 14.1 µM [inhibitor, partial curve, poor fit]. For `OC1CCN(Cc2ccc3ccccc3c2)CC1`, the Potency was active: 11.2 µM. With `CCN1CCN(c2nc3ccccn3c(=O)c2/C=C(\C#N)S(=O)(=O)c2ccccc2)CC1` the Potency was inconclusive: 50.1 µM [inhibitor, partial curve]. For `CN(CC(=O)Nc1ccc(F)c(F)c1F)C(=O)C1CSC2(C)CCC(=O)N12` (centres undefined), the Potency was inconclusive: 1.58 µM [inhibitor, single point]. For `COc1ccc(OC)c(S(=O)(=O)N2CCN(c3c(C)cccc3C)CC2)c1`, the Potency was inconclusive: 35.5 µM [inhibitor, single point]. For `Oc1ccc(C(=S)N2CCN(c3cccc(Cl)c3)CC2)cc1`, the Potency was active: 5.01 µM. In the case of `O=C(c1cccnc1)N1CCN(c2ccc(Cl)cc2)CC1`, the Potency is reported as inconclusive: 79.4 µM [inhibitor, single point]. With `O=c1cc(CSc2ccc(Cl)cc2)nc(-c2ccccc2)[nH]1` the “activity, negative = inhibition” value was inactive: 3.85% [at 102 µM].
